Values joined by “and” are separate entries in the source; they are usually repeats but may differ in a detail not shown here. Equal entries are not always repeated. The whole screen tested about 420,000 compounds, of which about 50,000 (12%) were called active. Inconclusive results, whose numbers are uncertain, are shown with a selection of clear calls. Calls follow the shape of the dose curve; as a rule, active = well fitted inhibition curve with a large enough effect; inconclusive = small, poorly fitted or top-dose-only effect; inactive = flat fitted curve, though single readings scatter. Where the call is inconclusive, the potency comes from a doubtful curve fit.
assay: qHTS for Inhibitors of human tyrosyl-DNA phosphodiesterase 1 (TDP1): qHTS in cells in presence of CPT; settings: chicken DT40 Tdp1-/-;hTDP1 cells + 20 nM CPT, ATP luminescence, 48 h; activity change, negative = growth inhibition: at 46.2 µM (top of the series) unless noted; also: nearly all actives have a fitted effect of over 55% in size
Procedure, shortened: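 Cell growth measured by CellTiter-Glo luminescence after a minimum 48 h, 37 C compound exposure with 20 nM CPT in Tdp1-knockout DT40 cells stably expressing hTDP1, seeded 400/well; qHTS titration format.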
% is scaled to controls: 0 for no effect and ±100 for the full control effect; potency is read from the fitted curve at half-maximal effect; tags tell the direction and shape of the fitted curve.

Compound	Potency	activity change, negative = growth inhibition
O=C(NCc1ccccc1Cl)c1cc(C(=O)C2CC2)c[nH]1	inconclusive: 14.6 µM [inhibitor, single point]	
COc1ccccc1CNC(=O)CSCc1nc(-c2ccc(OC)c(OC)c2)oc1C	inconclusive: 20.6 µM [inhibitor, single point]	
COc1cc(Cl)c(C)cc1NC(=O)c1cccc(OC)c1OC	inconclusive: 29.1 µM [inhibitor, single point]	
CCCCCCc1nc2nc(Cl)c(Cl)nc2[nH]1	active: 18.4 µM	
OC(c1ccccc1)C1CN(Cc2ccccc2)CCC1(O)c1ccccc1 (centres undefined)		inconclusive: -34.9% [inhibitor]
Cc1cnc(C)c(-c2cc(F)cc3c2OC(CNC(=O)c2cc(Cl)ccc2F)C3)n1 (centres undefined)		inactive: -3.17%
CCOc1ccc(NC(=O)c2sc3nc4c(cc3c2N)CN(Cc2ccccc2)CC4)cc1	inconclusive: 20.6 µM [inhibitor, single point]	
O=C(O)CC1(CC(=O)Nc2nccs2)CCCCC1	inconclusive: 2.91 µM [inhibitor, partial curve]	
CCOC(=O)C(CSCC(=O)c1ccc(Cl)cc1)NC(=O)OC(C)(C)C (centres undefined)		inactive: -28.6%
CCc1nc2c(OCc3ccc(Cl)cc3)cccn2c1N(C)C(=O)C1CC1	inconclusive: 18.4 µM [inhibitor, single point]	
Cn1c(=O)c2c(SC3CCCC3)nc(C3CC3)nc2n(C)c1=O	inconclusive: 29.1 µM [inhibitor, single point]	
CN(Cc1ccsc1)C(=O)CCc1nnc(CCCc2ccccc2)o1	inconclusive: 23.1 µM [inhibitor, single point]	
CCCn1c2ccccc2c2cnn(CC(=O)NCc3ccc(OC)cc3)c(=O)c21	inconclusive: 16.4 µM [inhibitor, single point]	
Cc1ccc(CNC(=O)NC23CC4CC(CC(C4)C2)C3)cc1	active: 23.1 µM	
Cc1ccc(Cn2ccnc2SCC(=O)Nc2ccccc2C(F)(F)F)cc1		inactive: -10.7%
O=C(O)c1ccc(CNS(=O)(=O)c2ccc3ccccc3c2)cc1		inactive: 1.83%
Cc1cccc(NC(=S)NC2CCCC2)c1	inconclusive: 18.4 µM [inhibitor, single point]	
CC1CCCCN1Cc1nc2c(c(=O)n(C)c(=O)n2C)n1CCCc1ccccc1 (centres undefined)	inconclusive: 16.4 µM [inhibitor, single point]	
CCC(C)C(=O)Nc1nnc(CCc2ccccc2)s1 (centres undefined)	inconclusive: 18.4 µM [inhibitor, single point]	
O=C(NCc1ccco1)C1CCCN1S(=O)(=O)c1ccccc1C(F)(F)F (centres undefined)	inconclusive: 29.1 µM [inhibitor, single point]	
CN(C)c1ccc(/C=N/NC(=O)C2COc3ccccc3O2)o1 (centres undefined)	inconclusive: 29.1 µM [inhibitor, single point]	
CC1(Oc2ccc(Cl)cc2)CCN(Cc2ccc(-c3ccccn3)cc2)C1 (centres undefined)	inconclusive: 29.1 µM [inhibitor, single point]	
O=C(COC(=O)c1cc(S(=O)(=O)N2CCCCC2)ccc1N1CCOCC1)c1ccc(Cl)cc1	inconclusive: 25.9 µM [inhibitor, single point]	

Compound	Potency	activity change, negative = growth inhibition
Cc1ccccc1Cn1ccc(NC(=O)c2cnn3c(C(F)(F)F)cc(-c4ccco4)nc23)n1	inconclusive: 25.9 µM [inhibitor, single point]	
C/C=C/c1ccc(OCC(=O)N2CCc3cc(OC)c(OC)cc3C2)c(OC)c1	inconclusive: 29.1 µM [inhibitor, single point]	
CCOC(=O)c1ccccc1NC(=O)NCc1cccn1Cc1ccc(F)cc1	active: 23.1 µM	
Cc1cc(C(=O)C(=O)N(C)C)c(C)n1-c1ccc(Cl)c(Cl)c1	inconclusive: 23.1 µM [inhibitor, single point]	
COc1ccccc1CNC(=O)C1CCN(S(=O)(=O)c2ccc3[nH]c(=O)ccc3c2)CC1		inactive: -7.53%
Cc1ccc(NC(=O)CNc2cc(S(=O)(=O)N3CCOCC3)ccc2NCC2CCCO2)cc1F (centres undefined)	inconclusive: 16.4 µM [inhibitor, single point]	
Cc1ccccc1Cn1nc(C)c(NC(=O)c2cc(CC(C)C)on2)c1C	inconclusive: 18.4 µM [inhibitor, single point] and inconclusive: 25.9 µM [inhibitor, single point]	
Cc1ccc(C2C(C#N)=C3N=C(N)c4ccccc4N3C3=C2C(=O)CCC3)cc1 (centres undefined)	inconclusive: 29.1 µM [inhibitor, single point]	
O=C(CSc1nc2ccccc2c(=O)n1-c1ccc(F)cc1)NC1CC1		inactive: -14.4%
CCOc1ccc(N2CC(C(=O)NCc3ccc4c(c3)OCO4)CC2=O)cc1 (centres undefined)		inactive: -2.1%
COc1ccc(CNC(=O)C2Cc3c(-c4cccc(C(C)=O)c4)ccnc3O2)cc1OC (centres undefined)	inconclusive: 29.1 µM [inhibitor, single point]	
CCCN1C(=O)/C(=C/c2ccccc2OCc2ccc(C(=O)O)cc2)NC1=S		inactive: 3.75%
O=C1CC(c2cccc(Cl)c2Cl)c2cc3c(cc2N1)OCCO3 (centres undefined)	inconclusive: 29.1 µM [inhibitor, single point]	
COC(=O)CCCC1=CC2=C(c3ccccc3)C(=O)C(C)(OC(=O)C3CCCC3)C(=O)C2=CN1Cc1ccc2c(c1)OCO2 (centres undefined)	active: 23.1 µM	
N#Cc1c(-c2cccs2)cc(-c2cccs2)[nH]c1=O		inactive: -10.3%
CCOc1ccc(NC(=O)Cn2c(=O)n(Cc3ccco3)c(=O)c3ccc(C(=O)NC4CCCC4)cc32)cc1	inconclusive: 16.4 µM [inhibitor, single point]	
CCc1nn(CC(=O)N2CCN(c3cccc(Cl)c3)CC2)c(=O)c2cc3sccc3n12		inactive: -4.16%
Cc1ccc2nc(-c3ccc(NC(=S)NC4CC(C)(C)NC(C)(C)C4)cc3)sc2c1	active: 3.66 µM	
CCCCCCn1c(N)c(C#N)c2ccc([N+](=O)[O-])cc2c1=O		inactive: -11.1%
CCCN(CC(=O)Nc1ccc(Cl)cc1Cl)C(=O)/C=C/c1ccco1	inconclusive: 23.1 µM [inhibitor, single point]	
Cn1c(CSCc2ccc(F)cc2)nnc1SCC(=O)Nc1nccs1	active: 10.3 µM	
CCc1cc(/C(Cc2ccccn2)=N\O)c(O)cc1O	inconclusive: 20.6 µM [inhibitor, single point]	
CCN1CCN(c2ccc(S(=O)(=O)N3CCCCC3)cc2NC(=O)/C=C/c2cccc(OC)c2OC)CC1	inconclusive: 18.4 µM [inhibitor, single point]	

Compound	Potency	activity change, negative = growth inhibition
COc1cc(C2C(=O)c3ccccc3C2=O)ccc1O	inconclusive: 29.1 µM [inhibitor, single point]	
CC(c1cccs1)N(C)Cc1nc(CCc2ccccc2)no1 (centres undefined)		inactive: -2.8%
CCOc1ccc(NC(=O)Cn2nc(SC)c(S(=O)(=O)c3ccccc3)c2N)cc1	inconclusive: 13 µM [inhibitor, partial curve]	
CCCCOC(=O)C(C)Oc1ccc(=O)n(-c2ccccc2)n1 (centres undefined)		inactive: -7.62%
C/C(=N/NC(=O)c1ccco1)c1ccc(NC(=O)c2ccc(Br)o2)cc1	inconclusive: 8.2 µM [inhibitor, single point]	
O=[N+]([O-])c1ccccc1S(=O)(=O)N1CCSCC1		inactive: -2.82%
CCC(C)(O)c1[nH]c2ccc(C#N)cc2c1C (centres undefined)	inconclusive: 29.1 µM [inhibitor, single point]	
Cn1c(-c2cccc([N+](=O)[O-])c2)cnc1NCc1ccc(C#N)cc1	inconclusive: 14.6 µM [inhibitor, partial curve]	
Cc1ccc(S(=O)(=O)Nc2cccc3c2O[C@@H](CN(C)C(=O)Nc2ccc4c(c2)OCO4)[C@H](C)CN([C@@H](C)CO)C3=O)cc1	inconclusive: 16.4 µM [inhibitor, single point]	
S=C(NCc1ccncc1)Nc1ccc(Cl)c(Cl)c1	inconclusive: 20.6 µM [inhibitor, partial curve]	
Cc1ccc(NC(=O)C2CCN(S(=O)(=O)c3ccc4c(c3)CCCN4C(=O)C3CCC3)CC2)cc1	active: 16.4 µM	
CC(=O)c1nn(-c2cccc(Br)c2)cc1C(=O)c1ccc(Cl)cc1	inconclusive: 11.6 µM [inhibitor, partial curve, poor fit]	
O=C(CCS(=O)(=O)c1nc(-c2cccs2)cc(C(F)(F)F)n1)Nc1ccc(F)c(Cl)c1	active: 4.61 µM	
COc1ccc(NC(=O)N(C)C[C@H]2OCc3cnnn3CCCC(=O)N([C@@H](C)CO)C[C@H]2C)c(OC)c1		inactive: -4.54%
COC(=O)C(C)Sc1nc2c(cnn2-c2ccc(Cl)cc2)c(=O)[nH]1 (centres undefined)		inactive: -15.7%
Cc1c(Cl)cccc1-n1ncc(C(=O)N2CCC(C)CC2)c1C1CCN(C(=O)OC(C)(C)C)CC1	inconclusive: 25.9 µM [inhibitor, single point]	
COc1ccc(NC(=O)Cc2c(F)cccc2Cl)c(OC)c1	inconclusive: 18.4 µM [inhibitor, partial curve]	
C#CC(=O)N(c1cc(OC)ccc1OC)C(C(=O)NC1CCCC1)c1cccs1 (centres undefined)	active: 2.31 µM	
CCN(CC)S(=O)(=O)c1ccc(C(=O)OCCN2C(=O)c3cccc4c(N5CCOCC5)ccc(c34)C2=O)cc1	inconclusive: 18.4 µM [inhibitor, single point]	
CCOC(=O)c1ccc(NC2=CC(=O)C(=O)c3ccccc32)cc1	active: 23.1 µM	
CCNC(=O)c1ccc(C23CC4CC(CC(C4)C2)C3)o1	inconclusive: 11.6 µM [inhibitor, partial curve]	
Cc1ccccc1-c1cncnc1N(C)Cc1ccco1		inactive: 5.25%
O=C(CCSc1nnc2scc(-c3ccccc3)n12)Nc1nc(-c2ccccc2)ns1	inconclusive: 23.1 µM [inhibitor, single point]	

— PubChem BioAssay AID686979 (National Center for Advancing Translational Sciences (NCATS), 2013)
